Source: PubChem BioAssay AID1030 (National Center for Advancing Translational Sciences (NCATS), 2008)
Several values for one entry are separate records, joined by “and”; a condition that tells them apart may be missing. Equal entries are not always repeated. Hit rate of the full screen: of about 220,000 compounds, about 16,000 (7.3%) were called active. The shares of active, inactive and inconclusive entries below differ from those in the screen. Calls come from the whole dose curve; as a rule, active = well fitted inhibition curve with a large enough effect (not every such curve was filed as active); inconclusive = small, poorly fitted or top-dose-only effect, or another doubt; inactive = no such curve, though single readings can be large or run the other way. Potencies of inconclusive entries are doubtful fits and often do not repeat.

Molecular target: Aldehyde dehydrogenase 1A1 (Homo sapiens) (UniProt P00352)
Sequence of UniProt P00352 (P00352 whole entry, looked up): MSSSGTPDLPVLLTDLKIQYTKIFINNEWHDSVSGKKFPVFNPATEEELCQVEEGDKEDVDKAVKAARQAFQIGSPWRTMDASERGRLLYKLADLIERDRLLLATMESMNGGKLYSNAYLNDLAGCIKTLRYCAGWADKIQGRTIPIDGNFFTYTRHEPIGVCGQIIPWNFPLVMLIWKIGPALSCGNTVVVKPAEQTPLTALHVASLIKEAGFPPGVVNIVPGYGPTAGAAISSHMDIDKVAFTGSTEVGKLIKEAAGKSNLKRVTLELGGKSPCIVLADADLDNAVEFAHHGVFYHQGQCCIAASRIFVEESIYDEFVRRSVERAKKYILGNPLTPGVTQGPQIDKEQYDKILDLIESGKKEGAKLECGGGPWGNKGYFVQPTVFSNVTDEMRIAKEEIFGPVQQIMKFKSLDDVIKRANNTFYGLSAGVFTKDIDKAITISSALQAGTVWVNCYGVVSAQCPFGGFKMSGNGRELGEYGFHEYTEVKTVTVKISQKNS
Test: qHTS Assay for Inhibitors of Aldehyde Dehydrogenase 1 (ALDH1A1);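 for activity, negative = inhibition: plate controls were no enzyme wells and a reference inhibitor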
Settings: Purified ALDH1A1, NADH fluorescence, propionaldehyde substrate; series mostly up to 75.3 µM
Potency is the fitted concentration of half-maximal effect; tags give direction and shape of the fitted curve.

| SMILES | Potency | activity, negative = inhibition |
| --- | --- | --- |
| CCC(C)n1c(O)c(C(c2ccccn2)c2c(O)n(C(C)CC)c(=S)[nH]c2=O)c(=O)[nH]c1=S (configuration not stated) | active: 7.08 µM | – |
| CC(C)CCNC(=O)Cn1c(=O)oc2cc(S(=O)(=O)N3CCc4ccccc43)ccc21 | inconclusive: 25.1 µM [inhibitor, partial curve] | – |
| O=P(OCC(F)(F)C(F)F)(N1CCCCC1)N1CCCCC1 | inactive | – |
| CC(C)(C)c1ccc(O)c(C[N+](C)(C)C)c1 | – | inactive: 14.8% [at 13.5 µM] |
| CC(C)C(=O)CP(=O)(O)O | – | inactive: -5.94% [at 13.5 µM] |
| Cc1cc(/C=C2\C(=O)NC(=O)N(C)C2=O)c(C)n1-c1ccc2c(c1)OCO2 | inconclusive: 14.1 µM [inhibitor, partial curve] | – |
| CC(C)(C)OC(=O)c1c(N)n(Cc2ccco2)c2nc3ccccc3nc12 | inconclusive: 31.6 µM [inhibitor, partial curve] | – |
| C=CC(=O)OCC | inactive | – |
| N[C@H](C(=O)O)c1cc(=O)[nH]o1 | inactive | – |
| O=C(CCNS(=O)(=O)c1ccccc1)Nc1ccc(Cl)cc1C(=O)c1ccccc1 | inconclusive: 22.4 µM [inhibitor, single point] | – |
| COc1ccc(N2CCN(C(CNC(=O)Oc3ccccc3)c3cccnc3)CC2)cc1 (configuration not stated) | inconclusive: 22.4 µM [inhibitor, single point] | – |
| COc1cc(N2CCOCC2)ccc1C=C1C(=O)NC(=O)NC1=O | active: 12.6 µM | – |
| CCOc1ccccc1OCCCCN1CCCC1 | active: 22.4 µM | – |
| CCN(CC)c1ccc(NC(=O)c2cccc(C)c2)cc1S(=O)(=O)Nc1ccccc1OC | active: 14.1 µM | – |
| O=C1CCCC2C3CC(CN12)C1CCCCN1C3 (configuration not stated) | inactive | – |
| Cc1ccc(OCC(=O)N/N=C\c2ccc(O)c([N+](=O)[O-])c2)c([N+](=O)[O-])c1 | inconclusive: 37.7 µM [inhibitor, single point] | – |
| COc1cc(Cn2c(N)c(C(=O)NCc3ccco3)c3nc4ccccc4nc32)cc(OC)c1OC | inconclusive: 25.1 µM [inhibitor, partial curve] | – |
| O=C1NC(=O)C(=Cc2ccc(N3CCN(C(=O)c4ccccc4)CC3)c([N+](=O)[O-])c2)C(=O)N1 | active: 11.2 µM | – |
| c1ccc2c(c1)ccc1cc3c(ccc4ccccc43)cc12 | inconclusive: 37.7 µM [inhibitor, partial curve] | – |
| C=CCN1CCc2cccc3c2C1Cc1ccc(O)c(O)c1-3 (configuration not stated) | inconclusive: 39.8 µM [inhibitor, single point] and inconclusive: 28.2 µM [inhibitor, partial curve] | – |
| c1ccc2c(c1)OC[C@@H](C1=NCCN1)O2 | inactive | – |
| Cc1nn(Cc2ccc(Cl)cc2Cl)c(Cl)c1C(=O)NC1CCCc2ccccc21 (configuration not stated) | inactive | – |
| N#Cc1ccc(CN2CC3(CCNCC3)C2)cc1 | inactive | – |
| Cc1cnn(C2CCN(C)CC2)c1N | inactive | – |

| SMILES | Potency | activity, negative = inhibition |
| --- | --- | --- |
| COc1ccc(Cn2c(N)c(C(=O)NCc3ccco3)c3nc4ccccc4nc32)cc1 | inconclusive: 28.2 µM [inhibitor, partial curve] | – |
| CN1C(=O)CCS(=O)(=O)[C@H]1c1ccc(Cl)cc1 | inactive | – |
| O=C1CC(=O)N(c2ccc(Cl)cc2Cl)C(=O)N1 | inactive | – |
| O=[N+]([O-])c1ccc(N2CCNCC2)cc1NCc1ccco1 | active: 28.2 µM | – |
| O=C(Nc1cccc(F)c1)N1CCC2(CC1)CCN(C(=O)Oc1ccccc1)CC2 | inconclusive: 15.8 µM [inhibitor, partial curve] | – |
| CC(C)N1C(=O)CC2(CC[N+](C)(CCOC(=O)C(O)(c3ccccc3)c3ccccc3)CC2)C1=O (configuration not stated) | inconclusive: 39.8 µM [inhibitor, partial curve, poor fit] | – |
| CCCCOC(=O)c1ccccc1C(=O)OCc1ccccc1 | inconclusive: 14.1 µM [inhibitor, partial curve] | – |
| Cn1c(O)c(/C=N/c2ccccn2)c(=O)n(C)c1=O | inconclusive: 35.5 µM [inhibitor, single point] | – |
| Nc1c(C(=O)NCCCc2ccccc2)c2nc3ccccc3nc2n1Cc1cccs1 | inconclusive: 22.4 µM [inhibitor, partial curve] | – |
| O=C1c2ccccc2NC(c2ccccc2O)N1NS(=O)(=O)c1ccccc1 (configuration not stated) | inconclusive: 28.2 µM [inhibitor, partial curve] | – |
| CCS(=O)(=O)Nc1cccc(C(=C2CCCCC2)c2cnc[nH]2)c1 | inconclusive: 31.6 µM [inhibitor, single point] | – |
| Cc1ccc(N=Nc2c(O)[nH]c(=O)[nH]c2=O)c([N+](=O)[O-])c1 | inconclusive: 8.91 µM [inhibitor, single point] | – |
| Cc1cc(C)cc(N2C(=O)NC(=O)/C(=C\c3cccn3-c3ccc(Cl)cc3)C2=O)c1 | inconclusive: 39.8 µM [inhibitor, single point] | – |
| Cc1nc2cc(C(=O)N3CCC4(CC3)OCCO4)ccc2n1-c1cccc(F)c1 | active: 25.1 µM | – |
| O=C(NC1C(=O)NNC1c1ccc(Cl)cc1)c1ccc(F)cc1 (configuration not stated) | inconclusive: 35.5 µM [inhibitor, single point] | – |
| Cc1nc2ccccc2c(=O)n1-c1ccccc1C(F)(F)F | inconclusive: 28.2 µM [inhibitor, single point] | – |
| CCN(CC)C(=O)C(C(=O)c1cccc([N+](=O)[O-])c1)n1cc(Cl)ccc1=O (configuration not stated) | active: 17.8 µM | – |
| CC(C)CCNC(=O)c1c(N)n(CC2CCCO2)c2nc3ccccc3nc12 (configuration not stated) | inconclusive: 7.08 µM [inhibitor, full curve] | – |
| [CH3][Hg][Cl] | active: 0.708 µM | – |
| Cc1ccc(CS(=O)(=O)Cc2ccc(C(=O)N3CCC4(CC3)OCCO4)o2)cc1 | inconclusive: 39.8 µM [inhibitor, single point] | – |
| COc1ccc(NC(=O)N2CCC3(CC2)OCCO3)cc1 | inactive | – |
| Cc1ccc(CN2C(=O)NC(=O)C3(Cc4c(nc5ccccn5c4=O)N4CCCCCC43)C2=O)cc1 (configuration not stated) | inconclusive: 28.2 µM [inhibitor, single point] | – |
| O=C1CCCc2c1nc(-c1ccccc1)n2O | inconclusive: 28.2 µM [inhibitor, partial curve] | – |
